The list shows a part of the results. At the low end of the ranking the order means little.
The sequences below were run on T1, GST-NbGlk1(82-244) (assay: protein-binding microarray). Conditions: NbGlk1 is a Golden2-like transcription factor of Nicotiana benthamiana; high values mean tight binding; most listed sequences are background and not binding sites; double strand, one strand shown.
T1 sequence: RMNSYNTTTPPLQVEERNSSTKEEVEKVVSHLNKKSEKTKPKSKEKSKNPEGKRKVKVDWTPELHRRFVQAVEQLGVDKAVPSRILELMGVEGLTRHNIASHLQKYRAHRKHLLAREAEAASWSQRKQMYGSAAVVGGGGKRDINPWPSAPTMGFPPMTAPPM
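Also: rank-based score ranging −0.5 to +0.5 with E above 0.45 taken as significant binding.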

**Q.** How did the binding signal turn out when ACGACGGA was run?
**A.** Its binding signal is 0.013 E-score.

**Q.** AACATGAA was tested. Which binding signal did it give?
**A.** Its binding signal is 0.0283 E-score.

**Q.** ACGGCCTC was tested. Which binding signal did it give?
**A.** Its binding signal is -0.146 E-score.

**Q.** CAAAGCCA was tested. Which binding signal did it give?
**A.** Its binding signal is -0.195 E-score.

**Q.** How did the binding signal turn out when AGTGGGCA was run?
**A.** The binding signal was -0.0248 E-score.

**Q.** Which binding signal does the source give for AATAATGT here?
**A.** Its binding signal is 0.179 E-score.

**Q.** For ACTATAAC, which binding signal is on record?
**A.** Its binding signal is -0.0973 E-score.

**Q.** With ATAACTTG as the sequence, how does the binding signal read?
**A.** The binding signal was 0.105 E-score.

**Q.** AAATCCAT was tested. Which binding signal did it give?
**A.** The binding signal was 0.422 E-score.

**Q.** AAGAATAT was tested. Which binding signal did it give?
**A.** Its binding signal is 0.331 E-score.

**Q.** How did the binding signal turn out when AGAATACG was run?
**A.** The binding signal was 0.16 E-score.

**Q.** Which binding signal does the source give for ATCTTACG here?
**A.** Its binding signal is 0.274 E-score.

**Q.** How did the binding signal turn out when ATTTCGCA was run?
**A.** Its binding signal is 0.279 E-score.

**Q.** With CAAAAAAG as the sequence, how does the binding signal read?
**A.** Its binding signal is 0.0516 E-score.

**Q.** ACACGGGC was tested. Which binding signal did it give?
**A.** The binding signal was -0.15 E-score.

**Q.** With ATGACTCG as the sequence, how does the binding signal read?
**A.** Its binding signal is -0.0232 E-score.

**Q.** For ATCTCCTC, which binding signal is on record?
**A.** Its binding signal is 0.296 E-score.

**Q.** For ATATTCGG, which binding signal is on record?
**A.** The binding signal was 0.228 E-score.

**Q.** For ATTCTCCA, which binding signal is on record?
**A.** Its binding signal is 0.31 E-score.

**Q.** AACTGTCC was tested. Which binding signal did it give?
**A.** The binding signal was -0.133 E-score.

**Q.** How did the binding signal turn out when AGAGCCTA was run?
**A.** Its binding signal is -0.116 E-score.

**Q.** How did the binding signal turn out when ACAACACT was run?
**A.** The binding signal was -0.0589 E-score.

**Q.** For ACATGGAC, which binding signal is on record?
**A.** Its binding signal is -0.114 E-score.

**Q.** ATTCATTG was tested. Which binding signal did it give?
**A.** The binding signal was 0.0123 E-score.

**Q.** CACTCCTG was tested. Which binding signal did it give?
**A.** The binding signal was -0.13 E-score.

**Q.** AGAGTGTC was tested. Which binding signal did it give?
**A.** The binding signal was -0.135 E-score.

**Q.** With AACCCGGG as the sequence, how does the binding signal read?
**A.** Its binding signal is -0.126 E-score.

**Q.** How did the binding signal turn out when ACGAGGCG was run?
**A.** Its binding signal is -0.183 E-score.

**Q.** With ACGCGCGA as the sequence, how does the binding signal read?
**A.** Its binding signal is 0.112 E-score.

**Q.** With CACGTAAC as the sequence, how does the binding signal read?
**A.** The binding signal was 0.00439 E-score.

**Q.** With AGAGTTTC as the sequence, how does the binding signal read?
**A.** The binding signal was -0.13 E-score.

**Q.** How did the binding signal turn out when ACGTCCCG was run?
**A.** The binding signal was -0.257 E-score.

**Q.** With CACATGTA as the sequence, how does the binding signal read?
**A.** Its binding signal is -0.000115 E-score.

**Q.** Which binding signal does the source give for AAGAGACC here?
**A.** Its binding signal is -0.223 E-score.

**Q.** With ATTTGCAA as the sequence, how does the binding signal read?
**A.** Its binding signal is 0.304 E-score.

**Q.** Which binding signal does the source give for AGCCTTTA here?
**A.** Its binding signal is -0.147 E-score.

**Q.** With ATGGGGAG as the sequence, how does the binding signal read?
**A.** The binding signal was -0.0436 E-score.

**Q.** Which binding signal does the source give for AACCGGGA here?
**A.** The binding signal was -0.228 E-score.

**Q.** ATTTATCA was tested. Which binding signal did it give?
**A.** The binding signal was 0.155 E-score.

**Q.** For CAAACTCG, which binding signal is on record?
**A.** Its binding signal is -0.0723 E-score.

**Q.** Which binding signal does the source give for AGAGGCTG here?
**A.** The binding signal was -0.255 E-score.

**Q.** For ACCATGCG, which binding signal is on record?
**A.** Its binding signal is -0.132 E-score.

**Q.** ACTCCCTC was tested. Which binding signal did it give?
**A.** The binding signal was -0.224 E-score.

**Q.** With AACTGTAA as the sequence, how does the binding signal read?
**A.** Its binding signal is 0.0394 E-score.

**Q.** With AAAGTTAC as the sequence, how does the binding signal read?
**A.** Its binding signal is -0.101 E-score.

**Q.** ACGATGAA was tested. Which binding signal did it give?
**A.** Its binding signal is -0.0966 E-score.

**Q.** Which binding signal does the source give for CAATCGTC here?
**A.** Its binding signal is 0.124 E-score.

**Q.** How did the binding signal turn out when AAGTTTAC was run?
**A.** The binding signal was -0.193 E-score.

**Q.** Which binding signal does the source give for ACGAATTC here?
**A.** Its binding signal is 0.114 E-score.

**Q.** Which binding signal does the source give for AGATTCCG here?
**A.** Its binding signal is 0.463 E-score.

**Q.** ACGATGAT was tested. Which binding signal did it give?
**A.** Its binding signal is 0.129 E-score.

**Q.** Which binding signal does the source give for AGGCAAGA here?
**A.** The binding signal was 0.0702 E-score.

**Q.** ATCAAGAT was tested. Which binding signal did it give?
**A.** The binding signal was 0.294 E-score.

**Q.** How did the binding signal turn out when ACGTTCAT was run?
**A.** The binding signal was -0.147 E-score.

**Q.** Which binding signal does the source give for ACTTATGA here?
**A.** Its binding signal is 0.169 E-score.

**Q.** AATTTAGA was tested. Which binding signal did it give?
**A.** The binding signal was 0.251 E-score.

**Q.** ATTAATCG was tested. Which binding signal did it give?
**A.** The binding signal was 0.0912 E-score.

**Q.** Which binding signal does the source give for ACGTATAG here?
**A.** The binding signal was 0.0747 E-score.

**Q.** Which binding signal does the source give for ATGTCACA here?
**A.** The binding signal was 0.15 E-score.

**Q.** AAAGGCAT was tested. Which binding signal did it give?
**A.** Its binding signal is -0.277 E-score.

**Q.** Which binding signal does the source give for AGACAAAT here?
**A.** Its binding signal is 0.145 E-score.

**Q.** CAAGCAGC was tested. Which binding signal did it give?
**A.** Its binding signal is -0.168 E-score.

**Q.** Which binding signal does the source give for ACTTGGGG here?
**A.** Its binding signal is -0.0916 E-score.

**Q.** Which binding signal does the source give for ACATTCCC here?
**A.** The binding signal was 0.0444 E-score.

**Q.** AAGCCTGG was tested. Which binding signal did it give?
**A.** The binding signal was -0.216 E-score.

**Q.** Which binding signal does the source give for ATGAAAAA here?
**A.** Its binding signal is 0.0906 E-score.

**Q.** AAACAGCT was tested. Which binding signal did it give?
**A.** The binding signal was 0.0135 E-score.

**Q.** Which binding signal does the source give for ACATTGTC here?
**A.** Its binding signal is -0.0399 E-score.

**Q.** For ACGCGAGG, which binding signal is on record?
**A.** Its binding signal is -0.0886 E-score.

**Q.** With ACACAGTG as the sequence, how does the binding signal read?
**A.** The binding signal was -0.114 E-score.

**Q.** AACCGCTG was tested. Which binding signal did it give?
**A.** The binding signal was -0.201 E-score.

**Q.** With ACCATCAT as the sequence, how does the binding signal read?
**A.** Its binding signal is 0.0644 E-score.

**Q.** CACGCAAG was tested. Which binding signal did it give?
**A.** The binding signal was -0.0861 E-score.

**Q.** ACCGAGGA was tested. Which binding signal did it give?
**A.** Its binding signal is -0.177 E-score.

**Q.** How did the binding signal turn out when CACTCCTA was run?
**A.** Its binding signal is -0.21 E-score.

**Q.** ATCAGTTG was tested. Which binding signal did it give?
**A.** Its binding signal is 0.0718 E-score.

**Q.** Which binding signal does the source give for ACACATAC here?
**A.** Its binding signal is 0.0816 E-score.

**Q.** Which binding signal does the source give for CAAATAAG here?
**A.** The binding signal was 0.053 E-score.

**Q.** With AACGGATA as the sequence, how does the binding signal read?
**A.** The binding signal was 0.215 E-score.

**Q.** ACGGAACA was tested. Which binding signal did it give?
**A.** The binding signal was -0.0487 E-score.

**Q.** With ATAGATCG as the sequence, how does the binding signal read?
**A.** Its binding signal is 0.206 E-score.

**Q.** With ACGTGTAC as the sequence, how does the binding signal read?
**A.** Its binding signal is -0.162 E-score.

**Q.** AAATTCGG was tested. Which binding signal did it give?
**A.** Its binding signal is 0.227 E-score.

**Q.** Which binding signal does the source give for ATCTATAA here?
**A.** Its binding signal is 0.224 E-score.

**Q.** Which binding signal does the source give for AACGCCCG here?
**A.** The binding signal was -0.183 E-score.

**Q.** Which binding signal does the source give for AGGACAGA here?
**A.** Its binding signal is -0.0906 E-score.

**Q.** How did the binding signal turn out when AGGCCCTC was run?
**A.** Its binding signal is -0.299 E-score.

**Q.** How did the binding signal turn out when AGCCATCG was run?
**A.** Its binding signal is -0.207 E-score.

**Q.** AAGATATA was tested. Which binding signal did it give?
**A.** The binding signal was 0.31 E-score.

**Q.** With CAGATTCG as the sequence, how does the binding signal read?
**A.** The binding signal was 0.438 E-score.

**Q.** ACACATCG was tested. Which binding signal did it give?
**A.** Its binding signal is 0.0893 E-score.

**Q.** For CACGCTTA, which binding signal is on record?
**A.** The binding signal was -0.0854 E-score.

**Q.** For AGGGGTAT, which binding signal is on record?
**A.** The binding signal was -0.0239 E-score.

**Q.** For AACGGGCG, which binding signal is on record?
**A.** Its binding signal is -0.0601 E-score.

**Q.** How did the binding signal turn out when CAAGCAAC was run?
**A.** Its binding signal is -0.245 E-score.

**Q.** Which binding signal does the source give for AAGATTAA here?
**A.** Its binding signal is 0.117 E-score.

**Q.** For AGGAGAGG, which binding signal is on record?
**A.** Its binding signal is -0.276 E-score.

**Q.** Which binding signal does the source give for ACCTATAC here?
**A.** Its binding signal is -0.046 E-score.

**Q.** Which binding signal does the source give for AAAAAGGC here?
**A.** Its binding signal is -0.0876 E-score.

**Q.** For AGATTGAA, which binding signal is on record?
**A.** The binding signal was 0.0399 E-score.

**Q.** Which binding signal does the source give for CAATGCAC here?
**A.** Its binding signal is -0.0881 E-score.

**Q.** Which binding signal does the source give for AAGTCTGT here?
**A.** Its binding signal is -0.0934 E-score.

**Q.** AACGATAG was tested. Which binding signal did it give?
**A.** Its binding signal is -0.0843 E-score.

**Q.** AGAGATAG was tested. Which binding signal did it give?
**A.** The binding signal was 0.106 E-score.

**Q.** AGGTGAAG was tested. Which binding signal did it give?
**A.** Its binding signal is -0.138 E-score.

**Q.** ACGGACCC was tested. Which binding signal did it give?
**A.** The binding signal was -0.0331 E-score.

**Q.** For AGCTCGGA, which binding signal is on record?
**A.** The binding signal was 0.0916 E-score.

**Q.** AGGGTGTA was tested. Which binding signal did it give?
**A.** Its binding signal is 0.0464 E-score.

**Q.** AACCGTGC was tested. Which binding signal did it give?
**A.** Its binding signal is -0.113 E-score.

— article PMC5836133
